Screen size: about 350,000 compounds; about 9,900 (2.8%) were called active. Inconclusive results, whose numbers are uncertain, are shown with a selection of clear calls. The call rests on the fitted dose curve; in most records, active means well fitted activation curve with a large enough effect; inconclusive means small, poorly fitted or top-dose-only effect; inactive means no such curve, though single readings can be large or run the other way. Potencies of inconclusive entries are left out as doubtful fits.
Experiment: A quantitative high throughput screen for small molecules that induce DNA re-replication in MCF 10a normal breast cells. Further: nearly all actives have a fitted effect of over 50% in size. On activity, positive = re-replication: % of control where 0% means no effect.
Settings: MCF 10A DNA re-replication, Hoechst nuclear intensity, 48 h; activity, positive = re-replication: at 46.1 µM (top of the series)
In the case of `O=C(Nc1nc(-c2ccccn2)cs1)C1CC(=O)N(c2ccc3c(c2)OCCO3)C1` (stereo unspecified), the Potency is reported as inconclusive [activator, partial curve, poor fit].
In the case of `Cc1ccc(C)n1C1CCS(=O)(=O)C1` (stereo unspecified), the Potency is reported as inconclusive [activator, single point].
In the case of `CN(C)CCC1(C2=CCCC2)CC/C(=C/c2ccc(Cl)cc2)C1=O` (stereo unspecified), the Potency is reported as inconclusive [activator, single point].
With `O=C(Nc1nc(-c2ccccn2)cs1)c1cc2ccccc2o1` the Potency was inconclusive [activator, single point].
With `O=C(Nc1cccc(-c2nnc(-c3ccccc3)o2)c1)C1CCCCC1` the Potency was inconclusive [activator, single point].
In the case of `Cc1ccc([N+](=O)[O-])cc1-c1[nH]c(-c2ccc(O)c(O)c2)nc1-c1ccccc1`, the Potency is reported as inconclusive [activator, single point].
In the case of `CN(C)c1ccc(C(CNC(=O)c2ccc(C#N)cc2)c2c[nH]c3ccccc23)cc1` (stereo unspecified), the “activity, positive = re-replication” value is reported as inactive: 19.2%.
In the case of `CC(=O)Oc1ccccc1/C=C/c1ccc2ccccc2[n+]1C`, the Potency is reported as inconclusive [activator, single point].
For `Cc1cc(C)cc(-c2nnc(SCC(=O)NCC3CCCO3)o2)c1` (stereo unspecified), the “activity, positive = re-replication” value was inactive: -12.5%.
For `O=C1C[C@H]2[C@H](CO)[C@@H](OC(=O)c3ccc(-c4ccccc4)cc3)C[C@H]2O1`, the “activity, positive = re-replication” value was inactive: -0.134%.
With `OCC1OC(n2cnc3c(NCc4ccccc4O)ncnc32)C(O)C1O` (stereo unspecified) the Potency was inconclusive [activator, full curve, poor fit].
In the case of `FC(F)(F)Oc1ccc(NC(=S)Nc2ccc(OC(F)(F)F)cc2)cc1`, the “activity, positive = re-replication” value is reported as inactive: -8.33%.
For `COC(=O)c1cc(-c2ccc(OC)cc2F)nc2nc(SC)[nH]c(=O)c12`, the Potency was inconclusive [activator, partial curve].
With `O=C(CCc1ccc(S(=O)(=O)NC2CCCCC2)cc1)NCc1ccc(Cl)cc1` the Potency was inconclusive [activator, full curve, poor fit].
In the case of `COc1ccc(Cl)cc1NC(=O)CN(C)C(=O)CN1C(=O)NC(C)(c2ccc3ccccc3c2)C1=O` (stereo unspecified), the Potency is reported as inconclusive [activator, single point].
With `c1ccc(Nc2c3c(nc4ncnn24)CCC3)cc1` the “activity, positive = re-replication” value was inactive: 16.5%.
In the case of `Cc1cccc(NC(=O)COC(=O)c2cccs2)c1C`, the Potency is reported as inconclusive [activator, single point].
With `COc1ccc2c(-c3cc4ccc(OCc5ccc(F)cc5)cc4oc3=O)cc(=O)oc2c1` the Potency was active: 1.84 µM.
For `COc1ccc(OC)c(CC(NC(C)=O)C(=O)NC2CCN(c3nc(OC)nc(OC)n3)CC2)c1` (stereo unspecified), the Potency was inconclusive [activator, single point].
For `CCOC(=O)COc1cc(-n2c(=S)[nH]c3cc(OC)c(OC)cc3c2=O)c(Cl)cc1Cl`, the Potency was active: 23.1 µM.
With `Cc1ccc(N2CC(=O)Nc3c(sc4nc(C)cc(C)c34)C2=O)cc1` the “activity, positive = re-replication” value was inactive: 1.64%.
With `Cc1ccc(C)c(NC(=O)c2oc(=O)c3ccccc3c2-c2ccccc2)c1` the “activity, positive = re-replication” value was inactive: 23.6%.
In the case of `Cc1nnc(NC(=O)c2sc3nc(-c4cccs4)cc(C(F)(F)F)c3c2N)s1`, the Potency is reported as inconclusive [activator, partial curve, poor fit].
In the case of `COc1ccc2[nH]c3c(=O)n(/N=C/[C@H]4C(C)C=C(C)CC4C)c(=O)[nH]c3c2c1` (stereo partly specified), the Potency is reported as active: 11.6 µM.
With `Cc1ccc(C(C)C)c(OCC(O)CN2CCOCC2)c1` (stereo unspecified) the Potency was inconclusive [activator, single point].
In the case of `CCc1cccc2c(C(=S)N3CCOCC3)c[nH]c12`, the “activity, positive = re-replication” value is reported as inactive: 1.94%.
In the case of `COc1cccc(C(c2c(N)n(C)c(=O)n(C)c2=O)C(C)[N+](=O)[O-])c1` (stereo unspecified), the Potency is reported as inconclusive [activator, single point].
In the case of `CCOC(=O)c1cnn(-c2ccccc2)c1N`, the Potency is reported as inconclusive [activator, full curve, poor fit].
For `OCc1cnc(SCc2ccccc2)n1Cc1ccccc1`, the “activity, positive = re-replication” value was inactive: -0.306%.
With `COC(=O)c1nc2ccccn2c1F` the Potency was inconclusive [activator, partial curve, poor fit].
For `Cc1ccccc1C(OCCN(C(C)C)C(C)C)c1ccccc1` (stereo unspecified), the “activity, positive = re-replication” value was inactive: -0.918%.
In the case of `O=C1/C(=C\c2ccc(O)c(O)c2)SC(=S)N1Cc1ccccc1`, the “activity, positive = re-replication” value is reported as inactive: 11.8%.
For `CC(=O)c1ccc2c(c1)c1ccccc1n2CC(C)C`, the Potency was inconclusive [activator, single point].
In the case of `COc1ccc(/C(C)=N/NC(=O)CNC(=O)/C=C\c2ccco2)cc1`, the “activity, positive = re-replication” value is reported as inactive: 9.15%.
For `O=C(Cc1ccccc1)N[C@@H](Cc1ccccc1)c1nc2ccccc2[nH]1`, the “activity, positive = re-replication” value was inactive: 30%.
With `COc1ccc(N2CCN(C(=O)c3ccc(COc4ccc5c(C)cc(=O)oc5c4)cc3)CC2)cc1` the Potency was inconclusive [activator, single point].
In the case of `Cc1nc2cc(N=NC3=C(O)CCCC3=O)ccc2s1`, the Potency is reported as inconclusive [activator, single point].
In the case of `COc1cccc(C(=O)Nc2nnc(C(C)C)s2)c1`, the “activity, positive = re-replication” value is reported as inactive: 14.3%.
In the case of `O=C1c2ccccc2C(=O)N1CCCCSc1nnc2c(Cl)cc(Cl)cn12`, the Potency is reported as inconclusive [activator, single point].
For `CC(=O)c1sc(NS(=O)(=O)c2ccc(C)cc2)nc1-c1ccccc1`, the Potency was inconclusive [activator, single point].
With `NC(=O)N1N=C2/C(=C/c3ccccc3)CCCC2C1c1ccccc1` (stereo unspecified) the Potency was active: 8.2 µM.
In the case of `COc1ccc(N2CCN(C(=O)c3[nH]c4ccc(OC)cc4c3C)CC2)cc1`, the Potency is reported as inconclusive [activator, single point].
For `Cc1ccc(-c2csc(NS(=O)(=O)c3cccc(F)c3)n2)o1`, the Potency was inconclusive [activator, single point].
In the case of `COc1ccccc1Nc1nc(-c2sc(NC(=O)c3ccccc3)nc2C)cs1`, the Potency is reported as inconclusive [activator, full curve, poor fit].
In the case of `COc1cc(C(=O)NC(=S)NNC(=O)c2cnccn2)cc(OC)c1OC`, the Potency is reported as inconclusive [activator, full curve, poor fit].
In the case of `Cc1cccc(-n2ncc3c(=O)[nH]c(SCC(=O)NCCC4=CCCCC4)nc32)c1`, the “activity, positive = re-replication” value is reported as inactive: 0.13%.
For `COc1cccc(CNC(=O)COC(=O)CCS(=O)(=O)c2ccc(C)cc2)c1`, the Potency was inconclusive [activator, single point].
In the case of `Cc1onc(-c2ccccc2)c1C(=O)N/N=C/c1ccc([N+](=O)[O-])s1`, the Potency is reported as inconclusive [activator, full curve, poor fit].
With `C=CCN1CCN(C(c2ccc(Cl)cc2)c2nnnn2CCc2ccc(OC)c(OC)c2)CC1` (stereo unspecified) the “activity, positive = re-replication” value was inactive: -1.67%.
For `Cc1ccc2c(c1)C(=O)C(=O)N2CC(=O)OC(C)C`, the Potency was inconclusive [activator, single point].
With `Cc1cccc[n+]1CC(=O)Nc1cccc([N+](=O)[O-])c1` the “activity, positive = re-replication” value was inactive: -1.16%.
For `COc1ccc(CC(=O)Nc2ccc(-c3cn4ccccc4n3)cc2)cc1OC`, the Potency was inconclusive [activator, single point].
In the case of `C=CCOc1cccc(C2C(C(=O)c3ccc(C)o3)=C(O)C(=O)N2Cc2ccncc2)c1` (stereo unspecified), the Potency is reported as inconclusive [activator, single point].
For `Cc1ccc(C(C)C)cc1S(=O)(=O)Nc1cccnc1`, the “activity, positive = re-replication” value was inactive: -9.86%.
For `Cc1ccc(C(=O)O)cc1NC(=O)CN1C(=O)C2C3c4ccccc4C(Br)(c4ccccc43)C2C1=O` (stereo unspecified), the Potency was inconclusive [activator, partial curve, poor fit].
With `CC(OC(=O)c1ccc2ncsc2c1)C(=O)Nc1cccc(Cl)c1` (stereo unspecified) the “activity, positive = re-replication” value was inactive: 10.9%.
In the case of `CCOC(=O)N1CCC(c2cc(=O)n(-c3ccccc3)[nH]2)CC1`, the Potency is reported as inconclusive [activator, partial curve, poor fit].
With `COc1ccc2cc3cc(C(=O)NCc4ccco4)oc3nc2c1` the Potency was inconclusive [activator, partial curve, poor fit].
For `Cc1cc(C)c2[nH]c(O)c(N=NC(=O)c3cc4c(s3)CCCC4)c2c1`, the “activity, positive = re-replication” value was inactive: -1.59%.
With `CCC/C(O)=C1\C(=O)CC(C)(C)CC1=Nc1cccc([N+](=O)[O-])c1` the Potency was inconclusive [activator, partial curve, poor fit].
For `COc1ccc(C(=O)N2CCN(c3ncccn3)CC2)cc1S(=O)(=O)N1CCOCC1`, the “activity, positive = re-replication” value was inactive: 0.66%.
For `Cc1nnc(SC2CC(=O)N(c3ccccc3)C2=O)s1` (stereo unspecified), the Potency was inconclusive [activator, single point].
For `COc1ccc(C(=O)C2CCN(CC(=O)Nc3ccccc3F)CC2)cc1`, the “activity, positive = re-replication” value was inactive: -5.1%.
With `N#Cc1cccc(NC(=O)CNc2cc(S(=O)(=O)N3CCOCC3)ccc2N2CCCC2)c1` the “activity, positive = re-replication” value was inactive: -5.15%.
For `Cc1cccc(NC(=O)NNC(=O)COc2ccc([N+](=O)[O-])cc2)c1C`, the “activity, positive = re-replication” value was inactive: 1.86%.
In the case of `CCOc1ccc(N(Cc2cc3cc(OC)ccc3[nH]c2=O)S(C)(=O)=O)cc1`, the “activity, positive = re-replication” value is reported as inactive: -0.569%.
In the case of `CCC(CO)Oc1cc(NCc2ccc(Cl)cc2Cl)c2ncn(C(C)C)c2c1` (stereo unspecified), the Potency is reported as inconclusive [activator, partial curve, poor fit].
In the case of `CCCCOC(C)n1cc(F)c(=O)[nH]c1=O` (stereo unspecified), the “activity, positive = re-replication” value is reported as inactive: -8.07%.
In the case of `COc1cc(C(=O)NCCc2cn3ccc(C)cc3n2)cc(OC)c1OC`, the “activity, positive = re-replication” value is reported as inactive: 7.04%.
With `O=S(=O)(Nc1ccc(-n2cccc2)cc1)c1ccc(Cl)cc1Cl` the Potency was inconclusive [activator, single point].
For `N#C/C(C(=O)NCc1ccco1)=C1/SC(Cc2ccc(Cl)cc2)C(=O)N1c1ccccc1` (stereo unspecified), the Potency was inconclusive [activator, single point].

Source: PubChem BioAssay AID624296 (National Center for Advancing Translational Sciences (NCATS), 2012)
Potency means the concentration at half of the fitted maximal effect; tags describe the fitted curve by direction and shape.
